In the supplement of paper PMC2702839:
Counter-ions that a name gives are not always drawn. The list shows a part of the results.

system: Schistosoma mansoni schistosomula; test: phenotypic hit in primary schistosomula screen (any phenotype vs DMSO control) (binary (1 = hit, 0 = no phenotype)); higher = active (phenotype induced); settings: 1 µM; time (d): 7

SMILES | phenotypic hit
COc1cc(C)c2c(=O)cc(-c3ccccc3)oc2c1 [methoxyvone] | inactive: 0
CC1=C(C(=O)O)N2C(=O)[C@@H](NC(=O)[C@H](N)c3ccc(O)cc3)[C@H]2SC1 [cefadroxil] | inactive: 0
CC1=CCCC(C)=CCC(C)(C)C=CC1 [humulene (alpha)] | inactive: 0
OC[C@H]1O[C@@H](O[C@H]2[C@H](O)[C@@H](O)[C@@H](O)O[C@@H]2CO)[C@H](O)[C@@H](O)[C@@H]1O [cellobiose (d[+])] | inactive: 0
Oc1cc(O)c2c(c1)O[C@H](c1cc(O)c(O)c(O)c1)[C@H](O)[C@H]2c1c(O)cc(O)c2c1O[C@H](c1cc(O)c(O)c(O)c1)[C@H](O)[C@H]2c1c(O)cc(O)c2c1O[C@H](c1cc(O)c(O)c(O)c1)[C@H](O)C2 [katacine] | inactive: 0
C[C@H]1CC[C@@H](C(C)(C)O)CC2=C1CC[C@@H]2C [guaiol] | inactive: 0
CC[C@]1(O)C[C@@H]2CN(CCc3c([nH]c4ccccc34)[C@@](C(=O)OC)(c3cc4c(cc3OC)N(C)[C@H]3[C@@](O)(C(=O)OC)[C@H](OC(C)=O)[C@]5(CC)C=CCN6CC[C@]43[C@@H]65)C2)C1 [vinblastine sulfate] | inactive: 0
CCOC(=O)c1c(C)cc(O)c(C)c1O [methylorsellinic acid, ethyl ester] | inactive: 0
CCN(CCCc1ccccc1)CCCc1ccccc1 [alverine citrate] | inactive: 0
NCCCCCN [cadaverine sulfate] | inactive: 0
CCN(CC)C(=O)N1CCN(C)CC1 [diethylcarbamazine citrate] | inactive: 0
O=C(O)c1cc(O)c(O)c(O)c1 [gallic acid] | inactive: 0
CC(C)=CCc1c(O)cc(C)oc1=O [2-isoprenyl-3-hydroxy-5-methyl-a-pyrone] | inactive: 0
COc1c(OC)c2occc2c2oc(=O)ccc12 [pimpinellin] | inactive: 0
CCCC(C(=O)OCCN(CC)CC)(c1ccccc1)c1ccccc1 [SKF-525A hydrochloride] | inactive: 0
CN1CCC[C@H]1c1cccnc1 [nicotine ditartrate] | inactive: 0
Clc1ccccc1C(c1ccccc1)(c1ccccc1)n1ccnc1 [clotrimazole] | inactive: 0
NC(=O)NO [hydroxyurea] | inactive: 0
Clc1ccc(COC(Cn2ccnc2)c2ccc(Cl)cc2Cl)cc1 (stereo unspecified) [econazole nitrate] | inactive: 0
O=C(O)c1cc(=O)c2c(OCC(O)COc3cccc4oc(C(=O)O)cc(=O)c34)cccc2o1 [cromolyn sodium] | inactive: 0
Cc1ccc(O)c([C@H](CCN(C(C)C)C(C)C)c2ccccc2)c1 [tolterodine hydrochloride] | inactive: 0
CCCCC[C@H](CC(=O)NO)C(=O)N[C@H](C(=O)N1CCC[C@H]1CO)C(C)C [actinonin] | inactive: 0

SMILES | phenotypic hit
CC(=O)OC(C)C[N+](C)(C)C (stereo unspecified) [methacholine chloride] | inactive: 0
CCCCOc1ccc(CC(=O)NO)cc1 [bufexamac] | inactive: 0
Oc1c(Cl)cc(Cl)cc1Sc1cc(Cl)cc(Cl)c1O [bithionol] | active: 1
C=CCc1ccccc1OCC(O)CNC(C)C (stereo unspecified) [Alprenolol hydrochloride] | inactive: 0
COc1ccc2c(c1)[C@@]1(C)CCC(=O)C[C@@H]1CC2 [5alpha-12-methoxy-4,4-bisnor-8,11,13-podocarpatrien-3-one] | inactive: 0
NC[C@H]1CC[C@H](C(=O)O)CC1 [tranexamic acid] | inactive: 0
Nc1nc(=O)c2c([nH]1)NCC(CNc1ccc(C(=O)N[C@@H](CCC(=O)O)C(=O)O)cc1)N2C=O (stereo partly specified) [leucovorin calcium] | inactive: 0
COC(=O)[C@H](O)[C@H]1C(C)(C)[C@H](OC(C)=O)[C@@H]2CC3=C4CC(=O)O[C@@H](c5ccoc5)[C@]4(C)CC[C@@H]3[C@@]1(C)C2=O [swietenolide-3-acetate] | inactive: 0
COc1cc(O)c2c(=O)c(-c3ccc(O)cc3)coc2c1 [prunetin] | inactive: 0
C=CC(C1=CC(=O)C(OC)=CC1=O)c1ccc(O)cc1 (stereo unspecified) [dalbergione, 4-methoxy-4'-hydroxy-] | inactive: 0
CN(C)CCC(c1ccccc1)c1ccccn1 (stereo unspecified) [pheniramine maleate] | inactive: 0
Nc1ccn([C@@H]2O[C@H](CO)[C@@H](O)[C@H]2O)c(=O)n1 [cytidine] | inactive: 0
CCCCCC1C(=O)CCC1CC(=O)O (stereo unspecified) [dihydrojasmonic acid] | inactive: 0
CC(C)CCC[C@@H](C)[C@H]1CC[C@H]2[C@@H]3CC=C4C[C@@H](O)CC[C@]4(C)[C@H]3CC[C@]12C [cholesterol] | inactive: 0
NCCc1ccc(O)c(O)c1 [Dopamine hydrochloride] | inactive: 0
CC(C)c1c(O)ccc2c1CCC1[C@@](C)(C=O)CCC[C@]21C (stereo partly specified) [totaralolal] | inactive: 0
NC(N)=NC(N)=Nc1ccccc1 [1-Phenylbiguanide] | active: 1
COC(=O)/C(C)=C\CC12OC(C)(C)C3CC(C=C4C(=O)c5c(O)c6c(c(CCC(C)(C)Cl)c5OC431)OC1(C)CCC(=C(C)C)C6C1)C2=O (stereo unspecified) [gamboginic acid, methyl ester] | inactive: 0
COC(=O)[C@@]1(C)CCC[C@]2(C)c3ccc(O)c(C(C)C)c3CCC12 (stereo partly specified) [totarol-19-carboxylic acid, methyl ester] | inactive: 0
COc1ccc2c(=O)cc(-c3ccccc3OC)oc2c1 [7,2'-dimethoxyflavone] | inactive: 0
CC1(C)O[C@@H]2C[C@H]3[C@@H]4C[C@H](F)C5=CC(=O)C=C[C@]5(C)[C@H]4[C@@H](O)C[C@]3(C)[C@]2(C(=O)CO)O1 [flunisolide] | inactive: 0
C[C@H](CS)C(=O)N1CCC[C@H]1C(=O)O [Captopril] | inactive: 0

SMILES | phenotypic hit
CN(Cc1cc(Br)cc(Br)c1N)C1CCCCC1 [bromhexine hydrochloride] | inactive: 0
CC(C)CCC[C@@H](C)[C@H]1CC[C@H]2[C@@H]3C[C@@H](O)[C@@]4(O)C[C@@H](O)CC[C@]4(C)[C@H]3CC[C@]12C [cholestan-3beta,5alpha,6beta-triol] | inactive: 0
C/C=C(\C)C(=O)O[C@@H]1c2c(ccc3ccc(=O)oc23)OC(C)(C)[C@@H]1OC(C)=O [pteryxin] | inactive: 0
CC(=O)OCC(=O)[C@@]1(O)CC[C@H]2[C@@H]3CCC4=CC(=O)C=C[C@]4(C)[C@H]3[C@@H](O)C[C@@]21C [prednisolone acetate] | inactive: 0
C[C@]12CCC(=O)C=C1CC[C@@H]1[C@@H]2[C@@H](O)C[C@@]2(C)[C@H]1CC[C@]2(O)C(=O)COP(=O)(O)O [hydrocortisone sodium phosphate] | inactive: 0
CC[C@H](c1ccc(O)cc1)[C@@H](CC)c1ccc(O)cc1 [hexestrol] | inactive: 0
C=CC1=C(C)/C(=C/c2[nH]c(Cc3[nH]c(/C=C4\NC(=O)C(C)=C4C=C)c(C)c3CCC(=O)O)c(CCC(=O)O)c2C)NC1=O [bilirubin] | inactive: 0
CC(C)=CCCC1(C)C=Cc2c(O)c3c(c(CC=C(C)C)c2O1)OC12C(=CCCC1C(C)(C)O[C@@]2(C/C=C(\C)C(=O)O)C(=O)O)C3=O (stereo partly specified) [garcinolic acid] | inactive: 0
C=C1CC[C@H](O)C/C1=C/C=C1\CCC[C@]2(C)[C@@H]([C@H](C)/C=C/[C@H](C)C(C)C)CC[C@@H]12 [ergocalciferol] | inactive: 0
Nc1nc(N)c2nc(-c3ccccc3)c(N)nc2n1 [Triamterene] | inactive: 0
COc1cccc(O)c1O [3-methoxycatechol] | inactive: 0
CCCCOc1ccc(C(=O)CCN2CCCCC2)cc1 [dyclonine hydrochloride] | active: 1
COc1ccc(CCC(=O)c2c(O)cc(O[C@@H]3O[C@H](CO)[C@@H](O)[C@H](O)[C@H]3O[C@@H]3O[C@@H](C)[C@H](O)[C@@H](O)[C@H]3O)cc2O)cc1O [neohesperidin dihydrochalcone] | inactive: 0
CC(C)(C)CC(C)(C)c1ccc(OCCOCC[N+](C)(C)Cc2ccccc2)cc1 [benzethonium chloride] | inactive: 0
CC(=O)/C(=C\c1ccccc1)CC(=O)O [levulinic acid,  3-benzylidenyl-] | inactive: 0
OC(CCN1CCCC1)(c1ccccc1)C1CCCCC1 (stereo unspecified) [procyclidine hydrochloride] | inactive: 0
CC(C)NCC(O)COc1cccc2[nH]ccc12 (stereo unspecified) [Pindolol] | inactive: 0
CC(C)=CCC[C@@H](C)[C@@H]1CC[C@]2(C)C3=C(CC[C@@]12C)[C@@]1(C)CC[C@H](O)C(C)(C)[C@@H]1CC3 [euphol] | inactive: 0
COC(=O)[C@H]1[C@H]2C[C@H]3c4[nH]c5ccccc5c4CCN3C[C@H]2CC[C@@H]1O [Rauwolscine hydrochloride] | inactive: 0
C[C@@H]([C@H]1OC(C)(C)[C@@H](O)[C@H]1O)[C@@H]1CC[C@]2(C)C3=CC[C@H]4C(C)(C)C(=O)CC[C@]4(C)[C@H]3CC[C@@]12C [odoratone] | inactive: 0
CC(CN(C)C)CN1c2ccccc2CCc2ccccc21 (stereo unspecified) [trimipramine maleate] | inactive: 0
C[C@H]1[C@H]2CC[C@H]3[C@@H]4CC=C5C[C@@H](N(C)C)CC[C@]5(C)[C@H]4CC[C@]23CN1C [conessine] | inactive: 0
